Results taken from the supplement of paper PMC8813932.
Counter-ions that a name gives are not always drawn. ± gives the standard deviation of the averaged measurements. Some of the results follow. Repeats are few or missing, and single values can be far off.

Legend:
Assay in all cases: log2 surviving fraction relative to plate median (drug vs vehicle, or drug+dl922-947 vs dl922-947 alone); ovarian cancer lines: OVCAR4 is platinum-sensitive while Ov4Cis resists cisplatin and Ov4Carbo carboplatin; higher = more cell survival
Conditions in all cases: compound concentration: 10 uM, 192 h
OVCAR4 = system: OVCAR4
Ov4Carbo = system: Ov4Carbo
Ov4Cis = system: Ov4Cis
[1] = dl922-947 oncolytic adenovirus co-treatment: MOI 10
[2] = dl922-947 oncolytic adenovirus co-treatment: none

Compound | log2 surviving fraction (OVCAR4; [1]) | log2 surviving fraction (OVCAR4; [2]) | log2 surviving fraction (Ov4Carbo; [1]) | log2 surviving fraction (Ov4Carbo; [2]) | log2 surviving fraction (Ov4Cis; [1]) | log2 surviving fraction (Ov4Cis; [2])
Nc1ccc(S(=O)(=O)Nc2ncccn2)cc1 [Sulfadiazine] | 0.438 ± 0.48 | 0.0662 ± 0.31 | -0.993 | 1.17 | -0.109 | 1
N=C(N)N [Guanidine HCl] | -0.837 ± 0.83 | -0.627 ± 0.34 | -0.205 | 0.348 | -1.16 | -2.41
COc1ccc(C2CNC(=O)C2)cc1OC1CCCC1 (stereo not drawn) [Rolipram] | 0.395 ± 0.36 | -1.05 ± 2.1 | 0.155 | 1.95 | 0.459 | 1.03
CC(=O)NS(=O)(=O)c1ccc(N)cc1 [sulfacetamide sodium] | 0.812 ± 0.28 | 0.421 ± 0.11 | 0.21 | 0.733 | 0.522 | -0.353
COC(=O)[C@H](c1ccccc1Cl)N1CCc2sccc2C1 [Clopidogrel (Plavix)] | 1.03 ± 0.96 | 0.0781 ± 0.12 | 1.2 | 0.299 | 0.149 | 0.555
O=C(O)C1=CO[C@@H](O[C@@H]2O[C@H](CO)[C@@H](O)[C@H](O)[C@H]2O)[C@@H]2C(CO)=CC[C@H]12 [Geniposidic acid] | 0.84 ± 0.62 | 0.642 ± 1.1 | 0.131 | 1.24 | 0.858 | 1.02
CC(NC(C)(C)C)C(=O)c1cccc(Cl)c1 (stereo not drawn) [Amfebutamone (Bupropion)] | 0.849 ± 0.21 | 1.03 ± 0.49 | 0.607 | 1.26 | 1.24 | 0.347
Cc1[nH]c(=O)c(C#N)cc1-c1ccncc1 [Milrinone (Primacor)] | 1.05 ± 0.2 | -0.0981 ± 0.28 | 0.202 | -0.429 | 0.646 | 0.168
Cc1cnc(C(=O)O)c[n+]1[O-] [Acipimox] | -0.518 ± 2 | -0.107 ± 0.57 | -0.256 | 0.785 | 0.689 | 0.313
CC(=O)O[C@]1(C(C)=O)CC[C@H]2[C@@H]3C[C@H](C)C4=CC(=O)CC[C@]4(C)[C@H]3CC[C@@]21C [Medroxyprogesterone acetate] | 1.13 ± 0.05 | 0.713 ± 1.6 | 0.381 | 0.885 | 1.36 | 0.834
CCOC(=O)[C@H](CCc1ccccc1)N[C@@H](C)C(=O)N1CCC[C@H]1C(=O)O [Enalapril maleate (Vasotec)] | 0.268 ± 0.27 | -0.0481 ± 0.58 | -0.308 | 0.565 | -0.257 | 0.479
C=CC(=O)N1CCC[C@@H](n2nc(-c3ccc(Oc4ccccc4)cc3)c3c(N)ncnc32)C1 | -0.147 ± 1.4 | -2.01 ± 0.015 | -1.59 | -4.83 | 1.22 | -1.22
Cc1ccc(NC(=O)c2ccc(CN3CCN(C)CC3)cc2)cc1Nc1nccc(-c2cccnc2)n1 [Imatinib Mesylate] | 0.304 ± 0.51 | -2.3 ± 4 | 0.643 | 2.15 | 0.666 | 1.05
COC(=O)C1=C(C)NC(C)=C(C(=O)OCCN2CCN(C(c3ccccc3)c3ccccc3)CC2)C1c1cccc([N+](=O)[O-])c1 (stereo not drawn) [Manidipine (Manyper)] | -1.34 ± 2.4 | -3.3 ± 2.6 | -4.35 | -8.95 | -0.00729 | -2.36
CCCN(CCC)CCc1cccc2c1CC(=O)N2 [Ropinirole HCl] | -0.185 ± 0.026 | 0.416 ± 0.49 | -1 | -0.0191 | -0.252 | 0.0905
CC(C)NCC(O)COc1cccc2ccccc12 (stereo not drawn) [Propranolol HCl] | -0.838 ± 0.99 | -0.184 ± 0.6 | -0.403 | -0.37 | -0.729 | 0.0304
CN(c1nccc(=O)[nH]1)C1CCN(c2nc3ccccc3n2Cc2ccc(F)cc2)CC1 [Mizolastine (Mizollen)] | 0.491 ± 0.89 | 0.263 ± 0.78 | -0.0538 | -0.654 | -0.434 | -0.362
C[N+](C)(CCOc1ccccc1)Cc1ccccc1.O=C([O-])c1cc2ccccc2cc1O [Bephenium Hydroxynaphthoate] | -0.0269 ± 0.83 | 0.879 ± 1.8 | 0.726 | 0.855 | 0.78 | 0.748
COc1cc2nc(N(C)CCCNC(=O)C3CCCO3)nc(N)c2cc1OC (stereo not drawn) [Alfuzosin hydrochloride (Uroxatral)] | 0.164 ± 0.63 | 0.258 ± 0.6 | -2.09 | -0.82 | 0.142 | 0.218
CO[C@H]1C[C@@H]2CC[C@@H](C)[C@@](O)(O2)C(=O)C(=O)N2CCCC[C@H]2C(=O)O[C@H]([C@H](C)C[C@@H]2CC[C@@H](OCCO)[C@H](OC)C2)CC(=O)[C@H](C)/C=C(\C)[C@@H](O)[C@@H](OC)C(=O)[C@H](C)C[C@H](C)/C=C/C=C/C=C/1C [Everolimus (RAD001)] | -2.1 ± 0.66 | -4.32 ± 3 | -4.02 | -5.68 | -2.11 | -6.05
C[N+]1(C)CCCC(OC(=O)C(O)(c2ccccc2)c2ccccc2)C1 (stereo not drawn) [Mepenzolate Bromide] | -0.0709 ± 0.55 | 0.428 ± 0.45 | -1.04 | -0.172 | 0.185 | -0.154
CCOC(=O)C1=C(C)NC(C)=C(C(=O)OCC)C1c1ccccc1/C=C/C(=O)OC(C)(C)C [Lacidipine (Lacipil, Motens)] | -0.448 ± 0.21 | -0.286 ± 0.47 | 0.612 | 0.0664 | -0.562 | -0.632
Oc1c(Cl)cc(Cl)c2cccnc12 [Chloroxine] | -3.26 ± 0.59 | -4.69 ± 0.061 | -1.9 | -3.78 | -2.94 | -1.52
